Measurements from PubChem BioAssay AID1030 (National Center for Advancing Translational Sciences (NCATS), 2008).
Among all 220,000 compounds or so, about 16,000 (7.3%) were called active. This list was built around the results that the source calls inconclusive (neither active nor inactive); the mix of calls is not that of the screen. The call rests on the fitted dose curve; in most records, active means well fitted inhibition curve with a large enough effect (not every such curve was filed as active); inconclusive means small, poorly fitted or top-dose-only effect, or another doubt; inactive means no such curve, though single readings can be large or run the other way. Potencies of inconclusive entries are left out as doubtful fits.

Each molecule was assayed against Aldehyde dehydrogenase 1A1 (Homo sapiens) (UniProt P00352) (assay: qHTS Assay for Inhibitors of Aldehyde Dehydrogenase 1 (ALDH1A1)). Settings: Purified ALDH1A1, NADH fluorescence, propionaldehyde substrate; series mostly up to 75.3 µM; activity, negative = inhibition: at the top concentration.
Chain of UniProt P00352 (P00352 whole entry, looked up): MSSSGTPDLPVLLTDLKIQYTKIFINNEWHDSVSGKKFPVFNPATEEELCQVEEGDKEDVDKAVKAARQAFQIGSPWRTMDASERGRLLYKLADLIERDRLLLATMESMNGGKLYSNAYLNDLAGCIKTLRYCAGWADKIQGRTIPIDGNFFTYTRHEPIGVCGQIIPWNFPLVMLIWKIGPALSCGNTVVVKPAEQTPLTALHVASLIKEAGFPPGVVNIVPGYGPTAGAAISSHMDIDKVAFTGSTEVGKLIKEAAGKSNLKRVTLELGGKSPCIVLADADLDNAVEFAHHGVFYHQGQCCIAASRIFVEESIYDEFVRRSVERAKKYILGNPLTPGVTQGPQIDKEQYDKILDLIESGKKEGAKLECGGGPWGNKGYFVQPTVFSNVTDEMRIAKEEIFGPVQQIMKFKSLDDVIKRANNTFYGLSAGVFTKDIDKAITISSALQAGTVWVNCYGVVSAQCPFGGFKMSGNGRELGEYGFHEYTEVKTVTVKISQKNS
Potency means the concentration at half of the fitted maximal effect; tags describe the fitted curve by direction and shape.
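Wherever activity, negative = inhibition is given: plate controls were no enzyme wells and a reference inhibitor.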

**Q.** For Cc1[nH]nc2c1C(c1ccc(O)cc1)C1=C(CC(C)(C)CC1=O)N2 (stereo unspecified), which Potency is on record?
**A.** inconclusive [inhibitor, single point]

**Q.** COc1ccc(S(=O)(=O)Cc2ccc(C(=O)N3CCN(Cc4ccccc4)CC3)o2)cc1 was tested. Which Potency did it give?
**A.** active: 12.6 µM

**Q.** Which Potency does the source give for COC(=O)c1ccc(NC(=O)c2ccc(N(C)S(C)(=O)=O)cc2)cc1 here?
**A.** inconclusive [inhibitor, partial curve]

**Q.** Nc1ccc(-c2nc3ccc(N)cc3[nH]2)cc1 was tested. Which Potency did it give?
**A.** inconclusive [inhibitor, partial curve]

**Q.** With Cc1ccc(-c2nnn(CC(=O)N(CC(=O)NC(C)C)c3cnc4ccccc4c3)n2)o1 as the molecule, how does the “activity, negative = inhibition” value read?
**A.** inactive: -1.39%

**Q.** How did the “activity, negative = inhibition” value turn out when CCc1nnc(N/N=C/c2ccccc2Cl)n1N was run?
**A.** inactive: 5.78%

**Q.** For CCc1ccc2[nH]c(=O)c(CN(CCN3CCCC3)C(=O)NC3CCCCC3)cc2c1, which Potency is on record?
**A.** inconclusive [inhibitor, partial curve]

**Q.** With CN1CCN(C(=O)CN(Cc2ccc(Cl)cc2)S(C)(=O)=O)CC1 as the molecule, how does the “activity, negative = inhibition” value read?
**A.** inactive: 9.84%

**Q.** How did the Potency turn out when Cn1c(-c2sc3cc(C(F)(F)F)cnc3c2-c2cccnc2)n[nH]c1=S was run?
**A.** inconclusive [inhibitor, single point]

**Q.** CC(C)CO/N=C1/C[C@@H](O)[C@@H](O)[C@@H]2[C@H]3C(=O)N(c4ccc(F)cc4F)C(=O)[C@@H]3CC[C@@H]12 was tested. Which activity, negative = inhibition did it give?
**A.** inactive: -3.26% [at 13.5 µM]

**Q.** Which Potency does the source give for CC1CCCN(C(=O)CSc2cnc3ccccc3n2)C1 (stereo unspecified) here?
**A.** active: 28.2 µM

**Q.** For CCOC(=O)c1ccccc1NC(=O)/C(C)=C/C(=O)O, which Potency is on record?
**A.** inconclusive [inhibitor, single point]

**Q.** Cc1ccc(NC(=O)C2CCCCC2C(=O)O)cc1Cl (stereo unspecified) was tested. Which Potency did it give?
**A.** inconclusive [inhibitor, partial curve]

**Q.** Cc1cccc(C(=O)N2CCC(=O)N(C(COCc3cccc(Cl)c3)Cc3ccccc3)CC2)c1 (stereo unspecified) was tested. Which Potency did it give?
**A.** inconclusive [inhibitor, single point]

**Q.** How did the Potency turn out when Cc1cccc2cc(C#N)c(NCCCn3ccnc3)nc12 was run?
**A.** inconclusive [inhibitor, single point]

**Q.** For COc1ccccc1CN1C(=O)CN(C2CCCCCC2)C(=O)C1c1ccc(F)cc1 (stereo unspecified), which Potency is on record?
**A.** inconclusive [inhibitor, partial curve]

**Q.** Which Potency does the source give for N#C/C(=C\c1cn(Cc2ccccc2C#N)c2ccccc12)C(=O)NCc1cccs1 here?
**A.** active: 7.94 µM

**Q.** How did the Potency turn out when CCCN(CCC)C(=S)NC(=O)c1ccc(-c2ccccc2)cc1 was run?
**A.** inconclusive [inhibitor, single point]

**Q.** Which “activity, negative = inhibition” value does the source give for O=C(Nc1ccccc1F)c1ccc(CSc2ncccn2)cc1 here?
**A.** inactive: -1.74%

**Q.** How did the Potency turn out when O=C(CCCCn1c(=O)[nH]c2ccccc2c1=O)NCCC1=CCCCC1 was run?
**A.** inconclusive [inhibitor, full curve]

**Q.** With COc1ccc(CCN2C(=S)N(C)C(=O)C2CC(=O)Nc2ccc(OC)cc2)cc1 (stereo unspecified) as the molecule, how does the Potency read?
**A.** active: 4.47 µM

**Q.** With COc1cc(NC(=O)c2ccco2)c(OC)cc1NC(=O)CCC(=O)Nc1cc(C)cc(C)c1 as the molecule, how does the Potency read?
**A.** inconclusive [inhibitor, single point]

**Q.** C=CCn1c(N)c(C(=O)OC(C)(C)C)c2nc3ccccc3nc21 was tested. Which Potency did it give?
**A.** inconclusive [inhibitor, partial curve]

**Q.** Which Potency does the source give for COc1ccc(-n2nc(C(=O)NCC(=O)NCC3CCCO3)c3ccccc3c2=O)cc1 (stereo unspecified) here?
**A.** inconclusive [inhibitor, single point]

**Q.** For Cc1ccccc1S(=O)(=O)NC1OC(=O)C(Cl)=C1Cl (stereo unspecified), which Potency is on record?
**A.** inconclusive [inhibitor, single point]

**Q.** How did the Potency turn out when Cc1nn(CC(=O)c2ccccc2)c(=O)c2nn(-c3ccccc3F)c(C)c12 was run?
**A.** inconclusive [inhibitor, single point]

**Q.** For CSc1ccc(S(=O)(=O)Nc2ccc(NC(C)=O)cc2)cc1, which Potency is on record?
**A.** inconclusive [inhibitor, partial curve]

**Q.** With c1ccc(CC2CCN(C(c3cccs3)c3nnnn3C3CCCC3)CC2)cc1 (stereo unspecified) as the molecule, how does the Potency read?
**A.** inconclusive [inhibitor, partial curve]

**Q.** With Cc1cc(=O)[nH]c2nnnn12 as the molecule, how does the Potency read?
**A.** inconclusive [inhibitor, partial curve]

**Q.** How did the Potency turn out when COc1cccc(-c2nc(CS(=O)CC(=O)O)c(C)o2)c1 (stereo unspecified) was run?
**A.** inconclusive [inhibitor, single point]

**Q.** CN(C)c1ccc(-c2cc(NCc3ccccc3)ncn2)cc1 was tested. Which Potency did it give?
**A.** inconclusive [inhibitor, partial curve]

**Q.** For Cc1cccc2cc(C#N)c(NCc3ccccc3)nc12, which Potency is on record?
**A.** inconclusive [inhibitor, single point]

**Q.** For COc1cccc(C(=O)NC2=NCCS2)c1, which “activity, negative = inhibition” value is on record?
**A.** inactive: 6.21%

**Q.** Which Potency does the source give for C/C(=N\NC(=O)Cc1cccn1C)c1ccc([N+](=O)[O-])cc1 here?
**A.** inconclusive [inhibitor, single point]

**Q.** With CCCCCn1c(SCC(=O)OC)nc2c1c(=O)[nH]c(=O)n2C as the molecule, how does the “activity, negative = inhibition” value read?
**A.** inactive: 3.84%

**Q.** Cc1cccc(Cn2nc(-n3cccc3)c3c(C)cc(C)nc32)c1 was tested. Which Potency did it give?
**A.** inconclusive [inhibitor, single point]

**Q.** How did the Potency turn out when CC(=O)c1ccc(OCCOc2ccc(C#N)cc2)cc1 was run?
**A.** inconclusive [inhibitor, single point]

**Q.** How did the Potency turn out when COc1cc(C(=S)NC2CCCCC2)ccc1O was run?
**A.** inconclusive [inhibitor, single point]

**Q.** For CCOC(=O)c1ccc(NC(=O)CSc2ncccn2)cc1, which “activity, negative = inhibition” value is on record?
**A.** inactive: -10.2%

**Q.** With CCO/N=C(/C)c1c(O)c(C)c(-c2ccccc2)n(-c2ccccc2)c1=O as the molecule, how does the “activity, negative = inhibition” value read?
**A.** inactive: -6.67%

**Q.** For NC(=O)COc1c(-c2ccco2)oc2ccccc2c1=O, which Potency is on record?
**A.** inconclusive [inhibitor, partial curve]

**Q.** For Cn1c(=O)c2c(nc(CN3CCN(c4ccccc4)CC3)n2CCN2CCOCC2)n(C)c1=O, which Potency is on record?
**A.** inconclusive [inhibitor, partial curve]

**Q.** How did the Potency turn out when CCCn1nnc(NC(=O)c2ccc(-c3cccc(Cl)c3)o2)n1 was run?
**A.** inconclusive [inhibitor, single point]

**Q.** Cc1ccc(-c2nc(C#N)c(NCc3ccco3)o2)cc1 was tested. Which Potency did it give?
**A.** inconclusive [inhibitor, partial curve]

**Q.** For CCCCS(=O)(=O)/C=C\C=C/S(=O)(=O)CCCC, which Potency is on record?
**A.** active: 3.98 µM

**Q.** CCCCOc1ccc(C(=O)N2CC(C)OC(C)C2)cc1 (stereo unspecified) was tested. Which Potency did it give?
**A.** active: 0.0794 µM

**Q.** For COc1cc2[nH]c(=O)n(CCCCCC(=O)NCCCN3CCC(C)CC3)c(=O)c2cc1OC, which Potency is on record?
**A.** inconclusive [inhibitor, single point]

**Q.** How did the “activity, negative = inhibition” value turn out when CSc1nnc(-c2ccc([N+](=O)[O-])cc2)o1 was run?
**A.** inactive: -15.1%

**Q.** How did the Potency turn out when Oc1ccccc1CNc1cccc2cccnc12 was run?
**A.** inconclusive [inhibitor, full curve]

**Q.** Which Potency does the source give for O=Cc1ccc(OCc2ccccn2)cc1 here?
**A.** inconclusive [inhibitor, partial curve]

**Q.** With CCCCCC(=O)NC(=S)Nc1ccc(NC(=O)c2ccco2)cc1 as the molecule, how does the Potency read?
**A.** inconclusive [inhibitor, single point]

**Q.** Which Potency does the source give for COc1ccc(N=c2oc3cc(O)ccc3cc2C(=O)Nc2ccccn2)cc1OC here?
**A.** inconclusive [inhibitor, single point]

**Q.** How did the “activity, negative = inhibition” value turn out when Cc1cc(C(F)(F)F)nc(-n2cc(-c3ccccc3)nn2)n1 was run?
**A.** inactive: 1.67%

**Q.** For Oc1c(C=NCc2ccc(F)cc2)[nH]c2ccc(Br)c(Cl)c12, which Potency is on record?
**A.** active: 4.47 µM

**Q.** N#CCCN(C(=O)Nc1ccc(Cl)c(Cl)c1)c1ccccc1 was tested. Which Potency did it give?
**A.** inconclusive [inhibitor, single point]

**Q.** For COc1ccc(CCNC(=O)C2CCN(S(=O)(=O)c3cc(OC)ccc3OC)CC2)cc1, which Potency is on record?
**A.** inconclusive [inhibitor, partial curve]

**Q.** With COC(=O)C1=C(C)N(Cc2ccccc2)C(=O)N[C@H]1c1cccc(F)c1 as the molecule, how does the Potency read?
**A.** inconclusive [inhibitor, partial curve]

**Q.** Which Potency does the source give for CCCc1oc2c(c(=O)c1CC)C(=O)CC(C)(C)C2 here?
**A.** inconclusive [inhibitor, partial curve]

**Q.** With COc1ccc(-c2oc3ncn(CCN4CCOCC4)c(=N)c3c2-c2ccc(OC)cc2)cc1 as the molecule, how does the Potency read?
**A.** inconclusive [inhibitor, single point]

**Q.** Which Potency does the source give for Cc1ccc(C2=NC(=O)/C(=C/c3cc(O)c(O)c(Br)c3)S2)cc1 here?
**A.** active: 10 µM

**Q.** With COc1ccc(CCNC(=O)CCC(=O)N2CCN(S(=O)(=O)c3ccccc3)CC2)cc1OC as the molecule, how does the Potency read?
**A.** inconclusive [inhibitor, partial curve]

**Q.** CC(CCc1ccccc1)NC(=O)COC(=O)CC1CC2CCC1C2 (stereo unspecified) was tested. Which Potency did it give?
**A.** inconclusive [inhibitor, single point]

**Q.** How did the Potency turn out when CC(=O)c1cccc(NC(=O)COc2cc3oc(=O)c(CC(C)O)c(C)c3cc2Cl)c1 (stereo unspecified) was run?
**A.** inconclusive [inhibitor, partial curve]

**Q.** Cc1ccc(CN(Cc2ccco2)C(=S)NCC(=O)O)cc1 was tested. Which “activity, negative = inhibition” value did it give?
**A.** inactive: -6.86%

**Q.** How did the “activity, negative = inhibition” value turn out when Cc1ccc(C(=O)CSc2nnc(-c3ccco3)n2C)cc1 was run?
**A.** inactive: 5.28%

**Q.** With CCOC(=O)CCNC(=O)N1CCCC(C(=O)c2ccccc2SC)C1 (stereo unspecified) as the molecule, how does the “activity, negative = inhibition” value read?
**A.** inactive: 5.76%

**Q.** Cc1nc2ccccn2c1C(=O)CSc1ccccc1Cl was tested. Which Potency did it give?
**A.** inconclusive [inhibitor, single point]

**Q.** For O=C1CN(Cc2ccccc2)C(=NCc2ccco2)S1, which Potency is on record?
**A.** inconclusive [inhibitor, single point]

**Q.** How did the “activity, negative = inhibition” value turn out when CS(=O)(=O)N(CC(N)=O)Cc1ccc(Cl)cc1 was run?
**A.** inactive: 3.43%

**Q.** Which “activity, negative = inhibition” value does the source give for CCOC(=O)C(C(C)=O)C(c1ccc(OCCC(C)C)cc1)C(C(C)=O)C(=O)OCC (stereo unspecified) here?
**A.** inactive: 0.258%

**Q.** Which Potency does the source give for Cc1cc(C)nc(NC(=O)c2cc([N+](=O)[O-])cc([N+](=O)[O-])c2)n1 here?
**A.** inconclusive [inhibitor, single point]
